Reference: the supplement of paper PMC12645437, “Orthogonal IMiD-Degron Pairs Induce Selective Protein Degradation in Cells” (ACS Chemical Biology, 2025)
This is one part of the list.

B1: Q9UKT9 (peptide)
chain: FMCEICGHWFTQKGNLLRHIKL
B2: Q9UKT9 (peptide)
chain: FYCEVCGATFTQKGNLLRHIKL
B3: Q9UKT9 (peptide)
chain: FCCDVCGASFTQKGNLLRHIKL
B4: Q9UKT9 (peptide)
chain: FVCPQCGAHFTQKGNLLRHIKL
B5: Q9UKT9 (peptide)
chain: LICNQCGFICTQKGNLLRHIKL
B6: Q9UKT9 (peptide)
chain: FHCEICGAKFTQKGNLLRHIKL
B7: Q9UKT9 (peptide)
chain: FMCPQCGATFTQKGNLLRHIKL
B8: Q9UKT9 (peptide)
chain: FRCNQCGHKFTQKGNLLRHIKL
B9: Q9UKT9 (peptide)
chain: LRCEICGFHCTQKGNLLRHIKL
B10: Q9UKT9 (peptide)
chain: FQCPICGHLFTQKGNLLRHIKL
B11: Q9UKT9 (peptide)
chain: FACEQCGAIFTQKGNLLRHIKL
B12: Q9UKT9 (peptide)
chain: FWCEVCGAPFTQKGNLLRHIKL
B13: Q9UKT9 (peptide)
chain: FECPICGREFTQKGNLLRHIKL
B14: Q9UKT9 (peptide)
chain: LLCPICGFVCTQKGNLLRHIKL

Biological target: no compound (DMSO)
Test: log2 fold change of degron read counts, EGFP-low vs EGFP+ sorted cells; higher = lower degron-EGFP level without compound (poor expression or instability)
Settings: compound: DMSO control; 18 h
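Note: jurkat cells carrying a lentiviral library of mutant zinc finger degrons fused to EGFP plus mCherry, mCherry+ cells FACS sorted, degron abundance counted by next-generation sequencing.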

Sequence	log2 fold change of degron read counts
B1	-0.484
B2	-0.52
B3	-1.92
B4	-0.453
B5	1.13
B6	-1.4
B7	-0.689
B8	0.163
B9	-0.0882
B10	-0.016
B11	-1.25
B12	-0.117
B13	-1.67
B14	1.46
